The text below walks through data of the supplement of paper PMC4967469.

Holding throughout (test): Viability of human cancer cell lines after 72 h of drug (GDSC screen)
Compound in one assay: N.N.[Cl][Pt][Cl] [Cisplatin]
The following applies: top dose inferred. The protocol: (§1)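 Human cancer cell lines in 384-well plates, medium with 10% serum, drug for 72 h over a 256-fold dose range (nine 2-fold or five 4-fold steps up to the top dose). Adherent lines were fixed and stained with the nucleic acid dye Syto60, suspension lines read with resazurin; signal relative to control wells, capped at 0 and 100%. One two-parameter sigmoid per drug and line, fitted in a mixed model over all curves with the slope shared within a line.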

Compound in the next assay: O=c1cc(N2CCOCC2)oc2c(-c3cccc4c3sc3ccccc34)cccc12 [NU-7441]
The conditions noted are these: top dose 2 µM; top dose inferred. The protocol: as §1

Compound in the next assay: COc1cc2ncnc(Nc3cc(Br)c(O)c(Br)c3)c2cc1OC [WHI-P97]
The conditions noted are these: top dose 10.24 µM; top dose inferred. On the procedure:
as §1

Compound in a further assay: COc1cc2nccc(Oc3ccc(NC(=O)C4(C(=O)Nc5ccc(F)cc5)CC4)cc3)c2cc1OC [XL-184]
The conditions noted are these: top dose 5.12 µM; top dose inferred. The protocol:
as §1

Compound in another assay: CCC1=C[C@@H]2CN(C1)Cc1c([nH]c3ccccc13)[C@@](C(=O)OC)(c1cc3c(cc1OC)N(C)[C@H]1[C@@](O)(C(=O)OC)[C@H](OC(C)=O)[C@]4(CC)C=CCN5CC[C@]31[C@@H]54)C2 [Vinorelbine]
The conditions noted are these: top dose 0.064 µM; top dose inferred. The protocol:
as §1

Compound in the next assay: O=c1cc(CN2CCOCC2)occ1OCCCCCSc1ccnc2cc(C(F)(F)F)ccc12 [EHT 1864]
The following applies: top dose 10 µM; top dose inferred. On the procedure:
as §1

Compound in the next assay: C=CC(=O)Nc1cc(NC(=O)c2ccc(C)c(NC(=O)c3ccno3)c2)cc(C(F)(F)F)c1 [QL-XI-92]
The following applies: top dose 10.24 µM; top dose inferred. On the procedure:
as §1

Compound in another assay: N=C(N)NC(=N)NCCc1ccccc1 [Phenformin]
The conditions noted are these: top dose 4000 µM; top dose inferred. The protocol:
as §1

Compound in another assay: CNCc1ccc(-c2[nH]c3cc(F)cc4c3c2CCNC4=O)cc1 [AG-014699]
The conditions noted are these: top dose 5 µM; top dose inferred. The protocol:
as §1

One may read the IC50 as the concentration that inhibits the measured activity by half.

Lines with a small IC50 respond at low doses; fits outside the tested doses are given as limits. AUC, from the same fit, is the share of area under the viability curve across the 256-fold dose range; it is 1 without any effect and falls as sensitivity rises. Where the top dose is marked as inferred, it was calculated from the reported fits. Where only a bound is given, the exact number is not on record here.

For the cell line “8-MG-BA (glioma, adherent, top dose 10 µM)”, in the assay with Cisplatin, the AUC came out at 0.822 and the IC50 is 5.39 µM.

For the cell line “22RV1 (prostate, adherent, top dose 10 µM)”, in the assay with Cisplatin, the AUC was 0.913 and the IC50 was over 10 µM.

As to HCC1806 (breast, adherent), the AUC with NU-7441 worked out at 0.989; with WHI-P97, 0.946; with XL-184 it was 0.952; with Vinorelbine, 0.516; in the assay with EHT 1864, 0.978; in the assay with QL-XI-92, 0.954. The AUC amounted to 0.668 with Phenformin and 0.965 with AG-014699. Moreover, the IC50 was over 2000 nM with NU-7441; over 10.2 µM in the assay with WHI-P97; over 5.12 µM in the assay with XL-184; 4.41 nM with Vinorelbine; over 10 µM with EHT 1864; over 10.2 µM in the assay with QL-XI-92. The values for the IC50 with Phenformin and with AG-014699 were 701 µM and over 5 µM, respectively.

For HDQ-P1 (breast, adherent), the AUC was 0.975 with NU-7441; 0.965 in the assay with WHI-P97; 0.974 with XL-184; 0.785 in the assay with Vinorelbine; 0.967 with EHT 1864; 0.973 in the assay with QL-XI-92. Further, the values for the AUC with Phenformin and with AG-014699 were 0.817 and 0.984, respectively. The IC50 with NU-7441 is over 2000 nM; with WHI-P97, over 10.2 µM; with XL-184, over 5.12 µM; in the assay with Vinorelbine, 33.1 nM; in the assay with EHT 1864, over 10 µM; with QL-XI-92, over 10.2 µM. In addition, the IC50 was 2800 µM with Phenformin and over 5 µM in the assay with AG-014699.

For the cell line HLE (liver, adherent), the AUC with NU-7441 was determined as 0.947; with WHI-P97, 0.945; with XL-184, 0.934; with Vinorelbine it was 0.646; with EHT 1864, 0.93; with QL-XI-92, 0.971. In addition, the AUC stood at 0.963 with Phenformin and 0.956 with AG-014699. Moreover, the IC50 is over 2000 nM with NU-7441; over 10.2 µM in the assay with WHI-P97; over 5.12 µM with XL-184; 9.88 nM with Vinorelbine; over 10 µM with EHT 1864; over 10.2 µM with QL-XI-92. Further, the IC50 with Phenformin is over 4000 µM; in the assay with AG-014699, over 5 µM.

Regarding HeLa (cervix, adherent), the AUC with NU-7441 turned out to be 0.989; with WHI-P97 it was 0.981; in the assay with XL-184, 0.978; in the assay with Vinorelbine, 0.796; with EHT 1864 it was 0.97; in the assay with QL-XI-92, 0.989. In addition, the AUC was found to be 0.498 with Phenformin and 0.989 with AG-014699. In addition, the IC50 in the assay with NU-7441 was over 2000 nM; with WHI-P97, over 10.2 µM; with XL-184 it was over 5.12 µM; in the assay with Vinorelbine it was 28.5 nM; with EHT 1864 it was over 10 µM; in the assay with QL-XI-92, over 10.2 µM. Also, the figures for the IC50 with Phenformin and in the assay with AG-014699 were 248 µM and over 5 µM, respectively.

With KM12 (large intestine, adherent), the AUC with NU-7441 was 0.955; with WHI-P97, 0.983; in the assay with XL-184, 0.768; with Vinorelbine, 0.463; in the assay with EHT 1864 it was 0.936; with QL-XI-92 it was 0.965. Moreover, the AUC with Phenformin was 0.481; with AG-014699 it was 0.962. Besides, the IC50 with NU-7441 was over 2000 nM; with WHI-P97, over 10.2 µM; with XL-184 it was 2.07 µM; in the assay with Vinorelbine it was 3.13 nM; with EHT 1864 it was over 10 µM; in the assay with QL-XI-92 it was over 10.2 µM. Moreover, the IC50 in the assay with Phenformin was 221 µM; with AG-014699, over 5 µM.

For “LK-2 (lung squamous cell carcinoma, adherent)”, the AUC with NU-7441 came to 0.988; in the assay with WHI-P97, 0.967; in the assay with XL-184, 0.977; with Vinorelbine it was 0.649; with EHT 1864, 0.959; with QL-XI-92, 0.987. Besides, the AUC is 0.599 in the assay with Phenformin and 0.907 with AG-014699. In addition, the IC50 with NU-7441 was over 2000 nM; in the assay with WHI-P97, over 10.2 µM; in the assay with XL-184, over 5.12 µM; with Vinorelbine, 10.1 nM; in the assay with EHT 1864 it was over 10 µM; with QL-XI-92 it was over 10.2 µM. Also, the figures for the IC50 with Phenformin and with AG-014699 were 460 µM and over 5 µM, respectively.

Take MFE-319 (endometrium, adherent): the AUC in the assay with NU-7441 was determined as 0.976; with WHI-P97, 0.982; with XL-184 it was 0.984; in the assay with Vinorelbine, 0.54; with EHT 1864 it was 0.959; with QL-XI-92, 0.989. In addition, the AUC with Phenformin worked out at 0.953; with AG-014699 it was 0.948. Also, the IC50 was over 2000 nM in the assay with NU-7441; over 10.2 µM with WHI-P97; over 5.12 µM with XL-184; 5.11 nM with Vinorelbine; over 10 µM with EHT 1864; over 10.2 µM with QL-XI-92. In addition, the 50% inhibitory concentration (IC50) is over 4000 µM in the assay with Phenformin and over 5 µM with AG-014699.

Turning to MKN1 (stomach, adherent), the AUC stood at 0.937 with NU-7441; 0.948 with WHI-P97; 0.964 in the assay with XL-184; 0.653 with Vinorelbine; 0.974 with EHT 1864; 0.98 with QL-XI-92. Besides, the figures for the AUC with Phenformin and with AG-014699 were 0.752 and 0.968, respectively. For the same cell line, the IC50 was over 2000 nM in the assay with NU-7441; over 10.2 µM with WHI-P97; over 5.12 µM in the assay with XL-184; 10.9 nM with Vinorelbine; over 10 µM in the assay with EHT 1864; over 10.2 µM with QL-XI-92. For the same cell line, the IC50 with Phenformin was 1390 µM; with AG-014699, over 5 µM.
